In ChEMBL document CHEMBL1201862, “PubChem BioAssay data set” (2004):
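Five concentrations, 48 hours, 96-well plates. GI50 marks 50% less growth.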 Calls of active or inactive are those of the source. Rule as the data show it: active = GI50 up to about 1.1 µM and inactive = higher.

Key:
Assay in all cases: NCI anticancer screen, dose series, 48 h
786-0 = test system: 786-0
A498 = test system: A498
A549 = test system: A549
ACHN = test system: ACHN
BT-549 = test system: BT-549
CAKI-1 = test system: CAKI-1
CCRF-CEM = test system: CCRF-CEM
COLO 205 = test system: COLO 205
DU-145 = test system: DU-145
EKVX = test system: EKVX
HCC 2998 = test system: HCC 2998
HCT-116 = test system: HCT-116
HCT-15 = test system: HCT-15
HL-60 = test system: HL-60
HOP-62 = test system: HOP-62
HOP-92 = test system: HOP-92
HT-29 = test system: HT-29
Hs-578T = test system: Hs-578T
IGROV-1 = test system: IGROV-1
K562 = test system: K562
KM12 = test system: KM12
LOX IMVI = test system: LOX IMVI
MCF7 = test system: MCF7
MDA-MB-231 = test system: MDA-MB-231
MDA-MB-435 = test system: MDA-MB-435
MDA-N = test system: MDA-N
MOLT-4 = test system: MOLT-4
Malme-3M = test system: Malme-3M
NCI-H226 = test system: NCI-H226
NCI-H23 = test system: NCI-H23
NCI-H460 = test system: NCI-H460
NCI-H522 = test system: NCI-H522
NCI/ADR-RES = test system: NCI/ADR-RES
OVCAR-3 = test system: OVCAR-3
OVCAR-5 = test system: OVCAR-5
OVCAR-8 = test system: OVCAR-8
PC-3 = test system: PC-3
RPMI-8226 = test system: RPMI-8226
RXF 393 = test system: RXF 393
SF-268 = test system: SF-268
SF-295 = test system: SF-295
SF-539 = test system: SF-539
SK-MEL-28 = test system: SK-MEL-28
SK-MEL-5 = test system: SK-MEL-5
SN12C = test system: SN12C
SNB-19 = test system: SNB-19
SNB-75 = test system: SNB-75
SR = test system: SR
SW-620 = test system: SW-620
TK-10 = test system: TK-10
U-251 = test system: U-251
UACC-257 = test system: UACC-257

O=C1Cc2c([nH]c3ccc(F)cc23)-c2ccccc2N1
GI50 (786-0): inactive: 28.6 µM
GI50 (A498): inactive: 41.8 µM
GI50 (A549): inactive: 15.3 µM
GI50 (ACHN): inactive: 16.8 µM
GI50 (BT-549): inactive: 43 µM
GI50 (CAKI-1): inactive: 33.7 µM
GI50 (CCRF-CEM): inactive: 18.7 µM
GI50 (COLO 205): inactive: 24.8 µM
GI50 (DU-145): inactive: 34.8 µM
GI50 (EKVX): inactive: 24 µM
GI50 (HCC 2998): inactive: 26.2 µM
GI50 (HCT-116): inactive: 8.2 µM
GI50 (HCT-15): 17.5 µM
GI50 (HL-60): inactive: 17 µM
GI50 (HOP-62): inactive: 15 µM
GI50 (HOP-92): inactive: 30.1 µM
GI50 (HT-29): inactive: 20.9 µM
GI50 (Hs-578T): inactive: 18.1 µM
GI50 (IGROV-1): inactive: 22.2 µM
GI50 (K562): inactive: 19.1 µM
GI50 (KM12): inactive: 18.8 µM
GI50 (LOX IMVI): inactive: 18.4 µM
GI50 (MCF7): inactive: 18.4 µM
GI50 (MDA-MB-231): inactive: 26.5 µM
GI50 (MDA-MB-435): inactive: 31 µM
GI50 (MDA-N): inactive: 34.3 µM
GI50 (MOLT-4): inactive: 16 µM
GI50 (Malme-3M): inactive: 50.1 µM
GI50 (NCI-H226): inactive: 42.2 µM
GI50 (NCI-H23): inactive: 27 µM
GI50 (NCI-H460): inactive: 21.9 µM
GI50 (NCI-H522): inactive: 18.2 µM
GI50 (NCI/ADR-RES): inactive: 30.8 µM
GI50 (OVCAR-3): inactive: 22.5 µM
GI50 (OVCAR-5): inactive: 34.4 µM
GI50 (OVCAR-8): inactive: 36.8 µM
GI50 (PC-3): inactive: 24.6 µM
GI50 (RPMI-8226): inactive: 19.1 µM
GI50 (RXF 393): inactive: 3.16 µM
GI50 (SF-268): inactive: 29.5 µM
GI50 (SF-295): inactive: 48.1 µM
GI50 (SF-539): inactive: 21.7 µM
GI50 (SK-MEL-28): inactive: 32.5 µM
GI50 (SK-MEL-5): inactive: 7.62 µM
GI50 (SN12C): inactive: 18.3 µM
GI50 (SNB-19): inactive: 34.3 µM
GI50 (SNB-75): inactive: 23.4 µM
GI50 (SR): inactive: 10.4 µM
GI50 (SW-620): inactive: 32.8 µM
GI50 (TK-10): inactive: 46.2 µM
GI50 (U-251): inactive: 23.2 µM
GI50 (UACC-257): inactive: 65.5 µM
